Sequences with one replicate were seen in a single cluster, so their values are uncertain.
System: ATP
Assay: switch fluorescence ratio, 500 uM ATP over buffer (Cy3 cluster intensity, sum of 5 cycles each) (fold (ratio)); higher = stronger signal-on switching upon ATP binding; sequences stand for … in TCGTCGGCAGCGTCAGATGTGTATAAGAGACAGTTTTTTTTTTTTTTTTTTTTTTTTT…TC
Settings: aptamer strand: ATP DNA aptamer (quencher-CACCTGGGGGAGTATTGCGGAGGAAGG + anchor), 100 nM annealed; ATP concentration: 500 uM; one replicate
Summary of the method: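 Clusters carrying Cy3-labelled switching strands on a modified Illumina MiSeq flow-cell were annealed to 100 nM quencher-labelled ATP aptamer and imaged in selection buffer. They were imaged again after 15 min with 500 uM ATP at 22 °C, over five buffer/ATP cycles with NaOH stripping and re-annealing in between. For each cluster, the fluorescence ratio is the summed Cy3 intensity of the target cycles divided by that of the buffer cycles, averaged per switch-domain sequence. Clusters outside 100-1000 RFU were left out.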
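Also: ATP exposure 15 min at 22 °C before imaging.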

Row | Sequence | switch fluorescence ratio
1 | GAGGTTGCTA | 0.998
2 | TACATGCGTA | 0.908
3 | CCGGTGGTTC | 1.01
4 | ATTAACGGGA | 1.04
5 | TCAGACGGA | 1.05
6 | AAACGCCCAT | 1.07
7 | TACGGTTGTC | 1.06
8 | TGAGACCGT | 0.975
9 | TTGAAGCTG | 0.98
10 | TAAAAAAAAA | 1.02
11 | TCTCCAAGG | 1.2
12 | CATCACGTGT | 0.962
13 | ACCACTTAGA | 1.07
14 | TCCAGAGAT | 0.994
15 | ACGTTTTGGT | 1.17
16 | CGCACACAGG | 1.06
17 | GCGTTAAAGG | 0.983
18 | ACGGGAAGGA | 1.01
19 | CAAAGTGTGT | 0.974
20 | GCAGATATGG | 1.02
21 | TACCGCGTT | 1.06
22 | TCAGGCAAGT | 0.993
23 | GTTTTTGCGC | 0.967

Row | Sequence | switch fluorescence ratio
24 | TCCGGAGGTT | 1.16
25 | TACTAGCCGC | 1.08
26 | ATCACTCATC | 1.07
27 | ATTTACGTCC | 1.07
28 | GGGAAACGCC | 0.947
29 | GACATTGTTT | 1.02
30 | AGATGCGGTC | 0.752
31 | GCTGATGAGT | 1.01
32 | ACATGGTGTC | 1.02
33 | GAGGAGAATC | 0.988
34 | CGTTCACATG | 1.03
35 | GGGAGTTTGA | 0.979
36 | CGAGTTCTTA | 0.979
37 | ATGAATAACA | 1.03
38 | AAGGGTACTG | 0.994
39 | GCTTTGGCAC | 1
40 | ATTACATTCA | 1.02
41 | GACACGGTG | 1
42 | GTTGTAGCAG | 0.983
43 | GCTATTCCGC | 1.22
44 | GTTGTTGCCG | 1.02
45 | TTAGATAAGA | 0.979
46 | AATGGGTAA | 0.985

Row | Sequence | switch fluorescence ratio
47 | ACTTTGAGGT | 0.992
48 | GATCCTACTG | 1.1
49 | ATATTCTGAC | 1.11
50 | AAGCCGAGCG | 1.06
51 | GGCGTAACG | 1.02
52 | TAGGTAAGTC | 1.03
53 | AAAGTGCTCA | 0.976
54 | CAATCCCAG | 1.04
55 | CGTCTATCCA | 0.978
56 | TGCAAGCCG | 1.07
57 | CATTCGGTAG | 1.01
58 | ACCTAAAGT | 1.04
59 | GCAAATTT | 1.02
60 | ACAGTAAATC | 1.01
61 | TTACGTCGAC | 1.03
62 | GAATTGTATA | 0.953
63 | TTCAACGCGT | 1.01
64 | ATTGAGGAGC | 1.06
65 | GCCTGCACAC | 1.49
66 | ATCGTCGACC | 1.01
67 | TAAGGGATCG | 1.04
68 | GGGGTCGTAC | 0.998
69 | AAGCCAGGGA | 1.02

Row | Sequence | switch fluorescence ratio
70 | GTATCAATCG | 0.983
71 | TCCAAGATCA | 1.01
72 | TTGGAATGCG | 0.931
73 | TTGTAGTCCC | 1.03
74 | ACTAATTTGG | 1.02
75 | CCATTGAGAA | 0.984
76 | ATTACCGTCG | 1.04
77 | CGTCCAATTG | 1.08
78 | GCCTTCTCTC | 1.31
79 | GAAATCGCGG | 0.968
80 | ATCGTATTG | 1.01
81 | TTAAGACGTG | 0.984
82 | TAGTCGCAA | 2.43
83 | ACGATTAATC | 1.07
84 | TGTAAGAAGA | 1
85 | TGCTATCTCA | 1.07
86 | TTTATTATG | 1.08
87 | TACGGCCAGC | 1.07
88 | GGATTACTGT | 0.943
89 | TACGGGACCT | 1.42
90 | AGGAATAGAG | 1.01
91 | ATTTCCAGGG | 1.52
92 | TACCATCTTT | 0.975

Row | Sequence | switch fluorescence ratio
93 | GAAGGCTGTG | 0.984
94 | TTTCTCGATA | 0.971
95 | GGTAACTCGA | 1.01
96 | TTGAGGATAT | 0.989
97 | AGTGCCATGT | 0.986
98 | GACTGGGTGC | 1.15
99 | ATTCTAACG | 0.96
100 | TCACAGAGCT | 1.03
101 | GTAACTCGC | 1.04
102 | AAAGGGTATT | 1.03
103 | GGCTAAAAAG | 1.04
104 | AGACCCACAT | 1.28
105 | TACATTTAAC | 1.08
106 | CTGAACCATC | 1.1
107 | GGCGTAATGT | 1.05
108 | ATTAGTTCT | 1.03
109 | TAGTCCTGAT | 1.02
110 | GATGCGCCGA | 0.97
111 | GCCATTTTAT | 0.969
112 | GAGGAATGTA | 0.978
113 | GGTTTCACAG | 0.956
114 | TATGGGGAT | 0.998
115 | TGGGAGAACT | 1.02

Row | Sequence | switch fluorescence ratio
116 | AAGTGGGGAC | 0.992
117 | GTTATATC | 0.955
118 | GTTCTAGAAG | 1.02
119 | CATGGCGCGA | 1.16
120 | CGGTTAGCTC | 0.982
121 | TTTAACGGTT | 0.985
122 | CAATTGCATA | 1.04
123 | AGGGCGTACC | 1.01
124 | GCAGTGTGTG | 0.949
125 | GTGCGGGTTC | 1.04
126 | TGGAGATTGC | 0.986
127 | TCAGTCCGAT | 1.03
128 | CGGTCTACAC | 1.03
129 | TTTGAGACCC | 1.05
130 | GGACGCGATT | 2.43
131 | CGGCCACGA | 1.01
132 | TTCTTTTGCC | 0.989
133 | CTCCCCGTGT | 1.64
134 | TATGCGACTA | 1
135 | TTGGCCGCC | 1.01
136 | TCGCCAGGAC | 1.93
137 | TAGACCGTTT | 0.973
138 | ACTATCGTCC | 1.03

Row | Sequence | switch fluorescence ratio
139 | TCCGGCCATA | 1.53
140 | GCGATTTGG | 1.05
141 | AGCCCGTAAT | 1.3
142 | AGTGAATGAT | 0.964
143 | TCTACGTACT | 1.67
144 | GAATGAATAT | 0.989
145 | AGCCTACGGC | 1.02
146 | GCCTAGCATC | 1.06
147 | TCTGAGTTGT | 0.969
148 | GCCGGCGCGA | 1.06
149 | TCCGGCATCT | 1.12
150 | GGCAGGATTG | 0.992
151 | CGCACAGATC | 1.11
152 | TCCTCCTCGG | 2.33
153 | GGCTCTTGGC | 0.996
154 | ATGCGAGAAA | 0.96
155 | CGCAGCTCGT | 1.24
156 | CCTGGGAGAC | 1.48
157 | AGGCTGGTAA | 1.03
158 | GTTTGTGCAG | 0.993

Reference: the supplement of paper PMC10126150
